Experimental data taken from patent publication CN110606891A (L&L BIOPHARMA CO LTD, dated 2019).

Key:
[1] = molecular target: T1, 鼠CLDN18.2 (mCLDN18.2), claudin-18 isoform A2.1 [Mus musculus], NP_001181850.1 (mouse, UniProt P56857 10-264); test: cell ELISA on mCLDN18.2+ cells (Table 23)
T1 construct: also called 鼠CLDN18.2+细胞; mCLDN18.2+ cell
T1 chain: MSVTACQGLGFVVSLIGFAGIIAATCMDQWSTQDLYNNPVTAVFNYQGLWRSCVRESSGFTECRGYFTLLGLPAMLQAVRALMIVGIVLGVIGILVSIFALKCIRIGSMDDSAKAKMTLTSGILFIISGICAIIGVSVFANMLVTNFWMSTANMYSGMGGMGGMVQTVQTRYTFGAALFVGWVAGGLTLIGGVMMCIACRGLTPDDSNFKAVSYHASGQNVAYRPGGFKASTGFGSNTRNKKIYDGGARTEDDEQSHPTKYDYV

[2] = molecular target: T2, 人CLDN18.1 (hCLDN18.1), claudin-18 isoform 1 precursor [Homo sapiens], NP_057453.1 (human, UniProt P56856 1-261); test: cell ELISA on hCLDN18.1+ cells
T2 construct: No signal peptide limits stated for this entry; also called 人CLDN18.1+ 细胞; hCLDN18.1+ cell
T2 sequence: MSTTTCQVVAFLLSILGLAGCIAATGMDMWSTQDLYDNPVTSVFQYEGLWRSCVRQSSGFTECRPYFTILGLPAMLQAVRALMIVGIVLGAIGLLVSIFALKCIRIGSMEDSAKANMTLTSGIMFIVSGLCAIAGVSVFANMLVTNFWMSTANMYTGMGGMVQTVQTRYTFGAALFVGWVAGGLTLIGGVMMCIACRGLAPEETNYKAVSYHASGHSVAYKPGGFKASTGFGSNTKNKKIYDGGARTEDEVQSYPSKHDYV

Binder	EC50 [1]	Emax [1]	binding result [2]
人源化Ab14抗体 (antibody, human IgG1, kappa, Humanized, hIgG1 (DEL) / kappa; also called L13/H54) heavy: QVQLVQSGAEVKKPGSSVKVSCKASGYAFSNYLIEWVRQAPGQGLEWMGLINPGSGGTNYNEKFKGKVTITADKSTSTAYMELSSLRSEDTAVYYCARVYYGNSFAYWGQGTLVTVSS[human IgG1 constant region not written out] light: DIVMTQSPDSLAVSLGERATINCKSSQSLLNSGNNKNYLAWYQQKPGQPPKLLIYWASTRESGVPDRFSGSGSGTDFTLTISSLQAEDVAVYYCQNDYFYPFTFGQGTKLEIKRTVAAPSVFIFPPSDEQLKSGTASVVCLLNNFYPREAKVQWKVDNALQSGNSQESVTEQDSKDSTYSLSSTLTLSKADYEKHKVYACEVTHQGLSSPVTKSFNRGEC	0.399 nM	2.39	no binding
Ab24 抗体 (antibody, human IgG1, kappa, hIgG1 (DEL) / kappa; also called L21/H61 DEL) heavy: QVQLVQSGAEVKKPGSSVKVSCKASGYAFSNYLIEWVRQAPGQGLEWMGLINPGSGGTNYNEKFKGKVTITADKSTSTAYMELSSLRSEDTAVYYCARVYYGNTFAYWGQGTLVTVSS[human IgG1 constant region not written out] light: DIVMTQSPDSLAVSLGERATINCKSSQSLLNTGNNKNYLAWYQQKPGQPPKLLIYWASTRESGVPDRFSGSGSGTDFTLTISSLQAEDVAVYYCQNDYFYPFTFGQGTKLEIKRTVAAPSVFIFPPSDEQLKSGTASVVCLLNNFYPREAKVQWKVDNALQSGNSQESVTEQDSKDSTYSLSSTLTLSKADYEKHKVYACEVTHQGLSSPVTKSFNRGEC	0.574 nM	2.22	
人源化Ab6抗体 (antibody, human IgG1, kappa, Humanized, light-chain CDR1 humanized (Var3), hIgG1 (DEL) / kappa; also called L12/H51) heavy: QVQLVQSGAEVKKPGSSVKVSCKASGYAFSNYLIEWVKQAPGQGLEWIGLINPGSGGTNYNEKFKGKATITADKSTSTAYMELSSLRSEDTAVYYCARVYYGNSFAYWGQGTLVTVSS[human IgG1 constant region not written out] light: DIVMTQSPDSLAVSLGERATISCKSSQSLLNSGNNKNYLAWYQQKPGQPPKLLIYWASTRESGVPDRFSGSGSGTDFTLTISSLQAEDVAVYYCQNDYFYPFTFGQGTKLEIKRTVAAPSVFIFPPSDEQLKSGTASVVCLLNNFYPREAKVQWKVDNALQSGNSQESVTEQDSKDSTYSLSSTLTLSKADYEKHKVYACEVTHQGLSSPVTKSFNRGEC	0.594 nM	2.47	no binding
人源化Ab13抗体 (antibody, human IgG1, kappa, Humanized without back mutations, hIgG1 (DEL) / kappa; also called L13/H53; 全人源化抗体) heavy: QVQLVQSGAEVKKPGSSVKVSCKASGYAFSNYLIEWVRQAPGQGLEWMGLINPGSGGTNYNEKFKGRVTITADESTSTAYMELSSLRSEDTAVYYCARVYYGNSFAYWGQGTLVTVSS[human IgG1 constant region not written out] light: DIVMTQSPDSLAVSLGERATINCKSSQSLLNSGNNKNYLAWYQQKPGQPPKLLIYWASTRESGVPDRFSGSGSGTDFTLTISSLQAEDVAVYYCQNDYFYPFTFGQGTKLEIKRTVAAPSVFIFPPSDEQLKSGTASVVCLLNNFYPREAKVQWKVDNALQSGNSQESVTEQDSKDSTYSLSSTLTLSKADYEKHKVYACEVTHQGLSSPVTKSFNRGEC	0.422 nM	2.37	
人源化Ab12抗体 (antibody, human IgG1, kappa, Humanized, hIgG1 / kappa) heavy: QVQLVQSGAEVKKPGSSVKVSCKASGYAFSNYLIEWVRQAPGQGLEWMGLINPGSGGTNYNEKFKGKVTITADKSTSTAYMELSSLRSEDTAVYYCARVYYGNSFAYWGQGTLVTVSS[human IgG1 constant region not written out] light: DIVMTQSPDSLAVSLGERATISCKSSQSLLNSGNNKNYLAWYQQKPGQPPKLLIYWASTRESGVPDRFSGSGSGTDFTLTISSLQAEDVAVYYCQNDYFYPFTFGQGTKLEIKRTVAAPSVFIFPPSDEQLKSGTASVVCLLNNFYPREAKVQWKVDNALQSGNSQESVTEQDSKDSTYSLSSTLTLSKADYEKHKVYACEVTHQGLSSPVTKSFNRGEC			no binding
人源化Ab15抗体 (antibody, human IgG1, kappa, Humanized, hIgG1 / kappa) heavy: QVQLVQSGAEVKKPGSSVKVSCKASGYAFSNYLIEWVKQAPGQGLEWIGLINPGSGGTNYNEKFKGKATITADKSTSTAYMELSSLRSEDTAVYYCARVYYGNSFAYWGQGTLVTVSS[human IgG1 constant region not written out] light: DIVMTQSPDSLAVSLGERATINCKSSQSLLNSGNNKNYLAWYQQKPGQPPKLLIYWASTRESGVPDRFSGSGSGTDFTLTISSLQAEDVAVYYCQNDYFYPFTFGQGTKLEIKRTVAAPSVFIFPPSDEQLKSGTASVVCLLNNFYPREAKVQWKVDNALQSGNSQESVTEQDSKDSTYSLSSTLTLSKADYEKHKVYACEVTHQGLSSPVTKSFNRGEC			no binding
